Assay results from PubChem BioAssay AID686979 (National Center for Advancing Translational Sciences (NCATS), 2013).
The whole screen tested about 420,000 compounds, of which about 50,000 (12%) were called active. Inconclusive means that the source gave no clear call. Such entries were picked first, then a sample of the others. Calls follow the shape of the dose curve; as a rule, active = well fitted inhibition curve with a large enough effect; inconclusive = small, poorly fitted or top-dose-only effect; inactive = flat fitted curve, though single readings scatter. Potencies of inconclusive entries are left out as doubtful fits.

experiment: qHTS for Inhibitors of human tyrosyl-DNA phosphodiesterase 1 (TDP1): qHTS in cells in presence of CPT; settings: chicken DT40 Tdp1-/-;hTDP1 cells + 20 nM CPT, ATP luminescence, 48 h; activity change, negative = growth inhibition: at 46.2 µM (top of the series) unless noted; also: nearly all actives have a fitted effect of over 55% in size
In short: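 Chicken DT40 Tdp1-/- cells stably complemented with human TDP1 were seeded at 400 cells/well in medium containing 20 nM camptothecin, exposed to pin-transferred compounds, and grown at 37 °C for at least 48 hr. Viability was read as ATP luminescence.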
% is scaled to controls: 0 for no effect and ±100 for the full control effect; potency is read from the fitted curve at half-maximal effect; tags tell the direction and shape of the fitted curve.

Structure (SMILES)	activity change, negative = growth inhibition	Potency
OC(c1ccc(-c2ccccc2)cc1)c1ncc(-c2cccc(F)c2)[nH]1 (configuration not stated)	inactive: -23.2%	
Fc1ccccc1-c1nc(NCCCN2CCOCC2)c2ccccc2n1		inconclusive [inhibitor, single point]
COc1cccc(C(c2nnnn2-c2c(C)cccc2C)N2CCN(C/C=C/c3ccccc3)CC2)c1OC (configuration not stated)		inconclusive [inhibitor, single point]
COc1ccc(C(=O)C[n+]2cc(Br)cc3ccccc32)cc1[N+](=O)[O-]	inactive: 0.464%	
CCC(CC)C(=O)Nc1cc([N+](=O)[O-])ccc1Cl	inactive: 3.08%	
Cc1cc(C(=O)COC(=O)c2ccco2)c(C)n1Cc1ccco1		inconclusive [inhibitor, full curve, poor fit]
Cc1nn(-c2ccccc2)c(C)c1NC(=O)COc1ccc(F)cc1Cl		active: 23.1 µM
Cc1cc(NS(=O)(=O)c2ccc(NC(=O)CSc3nc4sc(C)c(C)c4c(=O)[nH]3)cc2)no1	inactive: -2.68%	
CCOC(=O)N1CCc2c(sc3c2c(=O)n(-c2ccccc2)c(=O)n3CC(=O)Nc2ccc(OC)cc2OC)C1		inconclusive [inhibitor, single point]
CN(C)CCC(=O)N1C/C(=C/c2ccccc2)C(=O)/C(=C\c2ccccc2)C1		active: 1.84 µM
CCCCOc1ccc(/C=C/C(=O)OCC(=O)NC(=O)NCC(C)C)cc1OCC		inconclusive [inhibitor, partial curve, poor fit]
N/C(=N\OC(=O)CCCc1ccccc1)c1cccc([N+](=O)[O-])c1	inactive: -0.649%	
Cc1ccc2nc3c(c(Nc4ccccc4)c2c1)CCC3		inconclusive [inhibitor, single point]
O=C(CN1CCOCC1)N1CCN(c2nnc(-c3ccccc3)c3ccccc23)CC1	inconclusive: -31% [inhibitor]	
Cc1ccc(S(=O)(=O)N[C@@H](Cc2ccccc2)C(=O)N2CCC(C(=O)N[C@@H](CCC(N)=O)C(=O)O)CC2)cc1	inactive: 22.4%	
O=C(COc1ccccc1)Nc1ccccc1Cl	inactive: -11%	
COc1ccc(NC(=O)COC(=O)Cc2ccc(Br)cc2)cc1	inactive: -2.05%	
S=C(NCc1ccco1)Nc1ccc(Oc2ccc(Cl)cc2)cc1		inconclusive [inhibitor, single point]
COc1ccc(C(=O)NC2CCCc3c2cnn3-c2cccc(C)c2C)o1 (configuration not stated)		active: 20.6 µM
NC(=O)c1cnn2c(C(F)(F)F)cc(-c3ccc(F)cc3)nc12	inactive: -28.5%	
CCOc1ccc(OCC)c(NC(=O)c2cc(S(=O)(=O)N3CCCC3)cn2C)c1	inactive: -21.5%	
CCN1CCN(C(=S)NC(=O)c2cccs2)CC1		inconclusive [inhibitor, single point]
COc1ccc(C(=O)/C=C/C(=O)N(CC(=O)NC2CCCCC2)Cc2ccc(F)cc2)c(O)c1		active: 5.17 µM
O=C(CC1SC(=Nc2cccc3ccccc23)N(Cc2ccccn2)C1=O)Nc1ccccc1Br (configuration not stated)		active: 4.61 µM

Structure (SMILES)	activity change, negative = growth inhibition	Potency
Cc1ccc2occ(/C=N/NC(N)=S)c(=O)c2c1		inconclusive [inhibitor, single point]
CCOc1ncccc1C(=O)NCC(c1ccco1)N1CCCCC1 (configuration not stated)		active: 20.6 µM
CCOC(=O)c1sc(NC(=O)c2ccc(S(=O)(=O)N(C)C)cc2)cc1C		inconclusive [inhibitor, single point]
CS(=O)(=O)N1CCC(C(=O)NCc2ccc(Cl)cc2)CC1	inactive: -13%	
COC(=O)c1cc2ccsc2n1Cc1cccc(F)c1		inconclusive [inhibitor, partial curve]
COC(=O)C[C@H]1CC[C@H](NC(=O)Nc2ccccc2F)[C@@H](CO)O1		active: 23.1 µM
COc1ccccc1NC(=O)N1CCCC1		inconclusive [inhibitor, single point]
CC1(C)NC(=S)NC1=S	inactive: 1.44%	
Cc1ccc(NC(=O)Cc2n[nH]c(=O)c3ccccc23)cc1S(=O)(=O)N1CCCCCC1		inconclusive [inhibitor, single point]
CC1(c2ccc(OC(F)F)cc2)NC(=O)N(CC(=O)Nc2cccnc2Cl)C1=O (configuration not stated)		inconclusive [inhibitor, single point]
COc1ccc(CCNc2nc(-c3ccc(NC(C)=O)cc3)cs2)cc1OC		inconclusive [inhibitor, single point]
NC(=O)CC(NC(=O)c1ccccc1)c1ccc(NCc2ccc(F)cc2)c([N+](=O)[O-])c1 (configuration not stated)		active: 18.4 µM
N/C(=N\O)c1ccc(N2CCN(c3ncccc3C(F)(F)F)CC2)nc1		inconclusive [inhibitor, single point]
CCSc1nc2cc(OC)c(OC)cc2c(=O)n1CC		inconclusive [inhibitor, single point]
COc1cc2c(cc1NC(=O)COC(=O)[C@@H](NS(=O)(=O)c1ccccc1)C(C)C)oc1ccccc12		inconclusive [inhibitor, single point]
Cc1ccc(S(=O)(=O)NNC(=O)/C=C/c2cccc(F)c2)cc1		inconclusive [inhibitor, full curve, poor fit]
Cc1ccc(C(=O)c2cc3c(cc2[N+](=O)[O-])OCCO3)cc1	inactive: 2.42%	
COc1cc(OC)c(N(C)C(=O)c2cc3c(s2)-c2ccccc2OC3)cc1Cl		active: 13 µM
C/C(=N\NC(=O)c1csc(C)c1C)c1ccc(C)s1		active: 2.59 µM
CC(C)c1ccc(NC(=O)C2Cc3c(-c4ccc5c(c4)OCO5)ccnc3O2)cc1 (configuration not stated)		inconclusive [inhibitor, single point]
COc1ccc2c(CNCc3cccs3)c(C(=O)O)n(Cc3ccccc3C)c2c1		inconclusive [inhibitor, full curve]
Cc1ccc(S(=O)(=O)N/N=C/c2c[nH]c3ccccc23)cc1		inconclusive [inhibitor, single point]
COc1ccc2oc(C(=O)N(C)CCOc3ccc(Cl)cc3)c(C)c2c1		inconclusive [inhibitor, single point]
